In the supplement of paper PMC3334620:
Over roughly 33,000 sequences, “E-score (-0.5 to 0.5)” has its median near -0.017; the highest 2% begin near 0.3. The list shows a part of the results.

Molecular target: T1, Sut1 (UniProt P53032)
T1 sequence: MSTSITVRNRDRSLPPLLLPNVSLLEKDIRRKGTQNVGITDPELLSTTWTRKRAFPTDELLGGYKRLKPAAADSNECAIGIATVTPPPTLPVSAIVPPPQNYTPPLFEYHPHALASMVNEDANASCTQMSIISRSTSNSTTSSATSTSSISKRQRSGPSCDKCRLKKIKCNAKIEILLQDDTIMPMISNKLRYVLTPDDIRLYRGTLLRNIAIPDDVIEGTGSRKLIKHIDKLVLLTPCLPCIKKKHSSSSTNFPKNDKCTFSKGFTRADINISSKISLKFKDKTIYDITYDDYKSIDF
Assay: PBM E-score (8-mer binding enrichment) (E-score (-0.5 to 0.5)); higher = stronger / more preferred TF binding; most listed sequences are background and not binding sites
Settings: protein concentration: 200 nM; construct: GST-full length
Summary of the method: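 The E-score, a modified Wilcoxon-Mann-Whitney statistic, was computed by the Universal PBM Analysis Suite for every ungapped eight-base word pooled with its reverse complement. Scans behind it were normalised with masliner after bound GST-tagged yeast transcription factors were detected with fluorescent anti-GST. The proteins, at about 100-200 nM, had been applied to universal all-10-mer Agilent arrays made double-stranded by primer extension.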

Sequence	PBM E-score
CGCCGCTC	0.0133
CCCCACGC	-0.35
ATGAGCCA	0.0415
ACCCGCAC	-0.0235
TGATTGCA	0.0186
AGGACTCG	-0.295
GACAAATA	0.247
CAGGGATC	-0.24
AAATCCCG	0.213
AGGATTGC	-0.148
CAGACGGG	-0.194
AACATCAG	0.0774
CACAGGGC	-0.188
CACGGCAA	0.0279
CGTGCCCA	-0.149
TACGGAAA	0.278
TACCGACA	0.102
AAATGGTC	-0.0061
CGCATTCC	-0.284
AAAGCCAT	0.0644
ATCTCAGC	-0.101
ACCCTAAC	-0.0232
GTGAGTGA	-0.0684
GACTACAC	-0.00601
GCCAAAGC	-0.108

Sequence	PBM E-score
AATGATAG	0.251
ATCGTTTG	0.131
ATCGCAGA	-0.151
ACTAAGCG	-0.0189
CACGGATC	0.036
ACCTAAAT	0.138
CTAACTTA	0.0749
GCACCTGC	-0.0964
GAACCAGC	-0.0225
ATAGTGTG	0.0254
GGTCAGGA	-0.0699
CTGTTAGA	-0.124
CTTCCTAC	-0.25
GGATAGCA	0.0461
GGGTCTAC	-0.0245
CAGGCAAG	-0.225
CTTCAGTA	0.0951
CGCCGCCC	-0.0965
CTGCAGCA	-0.153
TAAAACCA	0.0167
GCATGCAA	0.0686
ATCTGCGC	-0.245
ACGCGCTA	-0.0186
CCAGGTCG	-0.345
AAGGTAGG	0.132

Sequence	PBM E-score
TGGTGAAA	0.0238
CAGGTCAA	0.0382
GGACGCCC	-0.171
AACGGTCT	-0.0776
AAACACTG	-0.0265
GAGGAAAA	0.178
CGATCATA	0.00404
CCGGTGGA	0.102
AGTGATTG	0.122
ACGAGTGG	-0.101
ACGTCGTA	-0.0441
ATTCTAGA	0.116
GTTAATAA	0.319
CTGTCGAC	-0.0759
GCAAGACA	-0.143
TGGCCCAA	-0.197
CCACGGCG	-0.0782
AGGCTCGA	-0.0616
GGGCAGCA	-0.237
CCGACCAA	-0.0457
CCACTCTC	-0.0616
ACGACACT	0.122
AGCCCATC	-0.23
ACAGTCGC	-0.178
GACGATAC	0.133

Sequence	PBM E-score
TCATAGAA	0.0681
ACACTTGA	-0.00965
CCACATAC	0.122
AGAGCCCC	-0.164
GAAAGTAC	0.0374
GCATCATA	0.189
ACATAGGT	-0.0933
ATAGAAGA	0.0626
GACCAACA	0.146
ATCACGCC	-0.00259
AGAGCGAG	-0.0702
CCTACGCC	-0.314
GTAGACGA	0.0141
ACACACCA	0.0421
GATTACGC	0.0223
TAGTGGGA	-0.138
ACCCGGGG	-0.118
CCGAGCCA	0.00845
AAGTGATC	0.0944
CTCGGTCA	-0.0926
TCAGGAAA	-0.0652
ATATTGGA	0.18
AATTTGCT	0.0801
CAAATGCA	0.0654
GCAAATGA	0.0175

Sequence	PBM E-score
CGAAAGAG	-0.0369
TAGTATGA	0.266
AGCGAAAG	0.0357
ACCGCTAA	0.0717
CATTATCA	0.0993
AGACAATA	0.189
GCGAGAGC	0.0778
AATTTAAT	0.317
AACTAAGA	0.161
GATCTAGA	-0.0313
ACATCCAT	0.0429
AGCCTCTG	-0.255
CAGGTGTC	-0.256
CCCAAAGA	0.0185
AACTGCTA	0.0448
GAAAGCGA	0.0761
ACACAATA	0.213
TACACGCA	-0.198
TAAGCCAA	0.0722
GACAGTGA	-0.0429
AGAATGTC	-0.0101
TACGGACA	0.282
ATCTTGTA	0.112
ATAAGTCC	0.317
ACCCAGAT	-0.0968

Sequence	PBM E-score
CGGACGTC	0.0183
GACGTGAC	-0.0943
GAACCACA	-0.0354
GAGAACAC	0.00632
CGCCATAA	-0.126
TCGAAGCA	-0.112
ACGGGATG	-0.254
CGTCGCAC	-0.192
CCTGTTCC	-0.133
GGGCAGTA	-0.0376
GGGTCACA	-0.288
CGGTACGC	0.0704
ATGGCATC	0.0898
GGAGCGAA	0.0455
ATCTATTC	0.176
GTATTTGA	0.102
TATTAAGA	0.112
AGATTTCA	0.149
CGCAGTAG	-0.101
AATCACTA	0.132
ATTGGGGA	-0.194
CATGAGCC	-0.195
TGCAGCCA	-0.204
CTAGTGAC	-0.0269
AGCCTTCA	0.0442

Sequence	PBM E-score
CATTGCAA	-0.0247
TAAAGCAA	0.209
CTCGCCCA	-0.242
AGGACGAA	0.101
AATGCCGT	0.133
TATCACCA	0.125
AGCCAGCT	-0.114
CGCATCGA	-0.0419
AACACCTC	-0.197
CTCGATGA	0.106
GGTACAAA	-0.0226
AATTGCCA	-0.0246
ATTGTCCG	0.359
CCATAGCG	-0.183
AAGGGCTG	-0.112
CCGATATC	0.17
GAAGATGC	-0.191
ACGCGGTG	-0.243
AATACAAA	0.348
CAGACAGG	-0.205
AGATTGGA	0.118
CCTATACC	-0.222
GGCGATCA	-0.151
CGCCAAAC	0.0669
GGAGGGAA	-0.105

Sequence	PBM E-score
GAACCTAA	-0.078
CAGGCCTC	-0.459
GCTCGACA	-0.207
CGAAACAC	0.0972
GACTTCCC	-0.111
AACAAGGC	-0.221
CACGATTC	0.0606
TATTCCGA	0.321
AACTTGCT	0.0522
CGCATAAC	0.108
ATTACGTC	-0.0174
TACTGCAA	-0.00385
ACCTGGAG	0.0444
TCCAGCCA	-0.196
ACCCTTGG	-0.289
AGCAAGGC	-0.251
CCAATCGC	0.0346
TACAGTGA	0.0108
TGCAGGCA	-0.194
GGCATAAC	0.0428
AACATGGG	-0.00269
CTGTCGGA	0.265
AAATGCAT	0.181
ATGACAGG	-0.167
ACACGTGG	-0.125

Sequence	PBM E-score
AGATGCTA	0.15
ACAAGTCA	-0.118
CCGTCTCG	-0.14
GTGCCGGA	0.259
CTAGAGGC	-0.201
CGCTTTTA	0.152
AGTGACGC	-0.13
AATATGAT	0.23
GTTCCTGA	-0.202
ATCACGGC	0.0173
AGTGCAGC	-0.194
ACGATCGA	0.00621
GCTTAACC	-0.0732
AACCACTA	0.0415
GAGTAAGA	0.165
GGACGGGA	-0.321
CACGCGCC	-0.0772
CGGTGTAA	0.034
AAAGTATT	0.205
GGTATAGA	-0.0386
ATTCGATC	0.0633
GACAGGCA	-0.149
ACTGAAGT	0.116
GTGGGTAA	-0.115
TAGGCCAA	-0.00442

Sequence	PBM E-score
ATCATAAG	0.183
AGCCCCGA	0.0858
GAGCAGGC	-0.287
GTTGGGAA	-0.0455
GAACAGAC	0.0707
AGCCGGGC	-0.143
GGGATATA	0.141
CGCTCAAC	-0.0527
AGCAGGAT	-0.0517
ACCCCCGC	-0.0707
ACATTCGA	0.167
ATAATAAT	0.295
GGCATTAA	-0.056
GGCTGCAC	-0.166
GATGCTTA	-0.0356
AGTCAACC	-0.141
GCGCAGAA	-0.0121
AAGTATCT	0.0258
ATGTTTAC	0.0198
CACGTCAG	-0.292
ATAACTAA	0.168
ACTGGTCC	-0.167
CGTAGGAG	-0.126
GGAGGTGA	0.0437
TCCATCAA	0.109

Sequence	PBM E-score
AAACCTTG	-0.0351
CATGTCTA	-0.118
AGAAGTCG	-0.0129
GTGGGCTA	-0.0686
CCCACCGG	0.133
GTGGATGA	-0.186
ACATGCAT	-0.0173
AAACAATG	0.121
AATAAATG	0.179
CGCCTGTA	-0.191
ATCCGGAG	0.414
CGGGCTGA	-0.248
AGACTTAA	-0.137
AATCTTAA	0.037
CGGCGAAA	0.0849
AGAAATAA	0.28
GCCATAGA	-0.242
AATGGTGA	-0.00114
TACGCTGA	0.14
ACAGGAGT	0.0194
AGCACGGC	-0.102
ACTTAGAA	0.0411
ATCCAATC	0.00305
GAGTCCCC	-0.188
ACTTTTAC	0.291

Sequence	PBM E-score
CAGCCTGA	-0.275
CCCATAAA	-0.0507
TTATGGAA	0.0859
GTCAGAGA	-0.143
ATGCAAAC	-0.084
ATTGACGA	0.0902
CTTCGAAA	0.00258
AAGTGAGG	-0.098
ATGACTCA	0.00053
AGTGGCAC	-0.256
CGGTAACC	-0.0833
ACCGCTCC	-0.16
ACAGTCAT	-0.239
AACAGTCA	-0.138
ATGAAGAG	0.0879
GTTCAAAC	0.232
TAAAAGAA	0.166
TGGTAGAA	-0.0199
CAGGCGGG	-0.281
CCCTACCG	-0.233
CATACTGC	-0.0947
CAAGAATA	0.171
ATCTACGC	0.184
GATCCGTA	-0.02
CCTTGAGC	-0.0674

Sequence	PBM E-score
ATGGAAGG	-0.171
TGCACACA	-0.0331
CTTCGATC	-0.125
CATGGCCG	0.0218
CACAACGG	-0.214
AAGAACAA	0.238
GGAGAGAA	0.127
AAACAGGC	-0.143
ATGGTACC	-0.0626
AAGCCGTC	-0.0505
GAACCTGC	-0.0908
AGATTTAC	0.216
ACTGTCAT	0.0632
CTTTACCA	0.0254
CCGTGCCG	-0.0966
CCACGAAG	-0.204
ATCCGAGC	0.0537
CACGCCAG	-0.277
AGACTAAA	0.169
CGTACAAA	0.0952
AGAATGTG	-0.174
CCTGCCCG	-0.366
GTGAGATA	0.0859
GGTGTTTA	0.0773
GAGCAAGA	-0.016

Sequence	PBM E-score
CAGCCTCG	-0.21
GTTCGGGA	0.14
CCGAGAGG	-0.0135
CAGAAGAG	-0.331
ACTATCTA	0.155
ATTCCGTG	0.273
GAGAAGAC	-0.123
AGGAAGAT	0.143
AAATTTGT	0.27
CCGTCGCG	-0.143
TCAGGCGA	-0.166
ATTAGTGC	0.231
GCTGGCAA	-0.129
GAACAATA	0.0829
AATAGGGA	-0.142
CACAGCGG	-0.217
AGGAGTCG	-0.0901
GCGACTGA	-0.0635
GTGTTAGA	0.109
